From ChEMBL document CHEMBL4888484, “Replenishing the malaria drug discovery pipeline: Screening and hit evaluation of the MMV Hit Generation Library 1 (HGL1) against asexual blood stage Plasmodium falciparum ,using a nano luciferase reporter read-out” (2022) come the findings set out here.

As usually defined, the % Inhibition is the drop in the measured response relative to a control, in per cent.

The structures appear in SMILES notation. The campaign covered roughly 150,000 compounds. About 540 (0.36%) showed an effect of 50% or more. This is one part of the list.

The subject of this test is Plasmodium falciparum. Put plainly: Primary screen in NF54 nanoGlo assay, in single point, at 2uM, 72h; a lower Z score goes with more inhibition. The test is classed as functional, Erythrocyte. The note with it: timepoint 72 hour.
For `c1ccc(-c2nc(-c3cn[nH]c3)c3ccccc3n2)cc1`, the “% Inhibition” value was 0% and the Z score was -0.06.
For the compound `N#Cc1cccc(N2C(=O)NC3(CCCC3)C2=O)c1`, the “% Inhibition” value came out at 38% and the Z score is reported as -3.85.
Take `Cc1nc(-c2c(C#N)c(N)nc3c2CCc2cc(O)ccc2-3)c[nH]1`: the “% Inhibition” value was found to be 3% and the Z score is listed as -0.44.
With `COC[C@H](C)Oc1cccc(CN(C2CC2)S(=O)(=O)c2ccc(F)cc2F)c1`, the “% Inhibition” value was determined as 1% and the Z score is listed as -0.13.
In the case of `C=C1CCC(NC(=O)N2CCNC2=O)CC1`, the “% Inhibition” value is -2% and the Z score was determined as 0.25.
The corresponding values for `COC1CCC(CCNC(=O)Cc2cncnc2)CC1` (stereo not drawn) are -1% and 0.14.
Take `CCn1nnc2ccc(-c3noc([C@H](C)NC(=O)c4ccccc4)n3)cc21`: the “% Inhibition” value was -6% and the Z score was found to be 0.96.
For the compound `O=C(OCC(F)(F)F)N1CCC[C@@H]1CCc1ccccn1`, the “% Inhibition” value is reported as 7% and the Z score is listed as -0.86.
The corresponding values for `Fc1ccc(-n2cc(-c3noc(-c4ccc5cc[nH]c5c4)n3)nn2)cc1` are -16% and 3.06.
The corresponding values for `CN(CC1CCCOC1)c1cc(N(C)CC2CCCOC2)ncn1` (stereo not drawn) are -6% and 0.81.
With `Cc1cc(C(=O)N2CC(F)(F)C[C@H]2c2nncn2CC2CC2)nn1C`, the “% Inhibition” value is -2% and the Z score stood at 0.35.
The corresponding values for `CCN(CN1C(=O)C(=O)c2cc3c(cc21)OCCO3)C(C)C` are -1% and 0.16.
Taken in the same sequence, the figures for `O=C(c1c(O)ccc2ccccc12)N1CC[C@@]2(CCCN(CC3CC3)C2=O)C1` were -18% and 1.69.
Taken in the same sequence, the figures for `Cc1nn(C)c2nc(-c3ccccn3)nc(N(C)CCN3CCCC[C@@H]3C)c12` were 5% and -0.7.
For `C[C@H](NC(=O)CCNC(N)=O)c1ccc(Cl)s1`, the “% Inhibition” value was -3% and the Z score came out at 0.54.
On to `O=C([C@@H](c1ccncc1)C1CCCC1)N1CC(N2CCCC2=O)C1`, for which the “% Inhibition” value is reported as -10% and the Z score was determined as 1.1.
The corresponding values for `CN(Cc1ccccc1)Cc1cn([C@H]2CO[C@H]3[C@@H]2OC[C@@H]3NS(=O)(=O)c2cccs2)nn1` are 9% and -1.01.
Regarding `CC(C)c1nc(NC2CCCCCC2C(N)=O)nc(N(C)C)n1` (stereo not drawn), the “% Inhibition” value was -5% and the Z score came to 0.66.
The corresponding values for `O=C(C1c2ccccc2Oc2ccccc21)N1CCC(Oc2cccnn2)CC1` are -17% and 3.28.
Taken in the same sequence, the figures for `Cc1ccc(C(=O)O)c(N2C[C@H]3CC[C@@H](C2)N(Cc2ccccn2)C3=O)n1` were -15% and 1.78.
The corresponding values for `O=S(=O)(N[C@H]1COc2ccccc21)c1ccc2c(c1)OCCO2` are -2% and 0.38.
Regarding `COC[C@H](C)NC(=O)C1=NN(c2ccccc2)C(=O)CN1`, the “% Inhibition” value is given as 12% and the Z score is -1.68.
With `COc1ccccc1N1C(O)=Nc2ccccc2S1(=O)=O`, the “% Inhibition” value is listed as 29% and the Z score is -3.97.
For `CNCC(=O)Nc1nn(Cc2ccccc2)c2cccc(N3CCOCC3)c12`, the “% Inhibition” value was -3% and the Z score is listed as 0.54.
Take `O=C(N[C@H]1CCCC(F)(F)C1)C1CCN(c2ccc3nncn3n2)CC1`: the “% Inhibition” value came to 6% and the Z score was -1.25.
In the case of `CN(C(=O)C1=Cc2cc(Br)ccc2OC=C1)c1ccccc1`, the “% Inhibition” value is listed as -3% and the Z score turned out to be 0.47.
Taken in the same sequence, the figures for `Brc1cnn(C(c2ccccc2)(c2ccccc2)c2ccccc2)c1` were -6% and 0.89.
Taken in the same sequence, the figures for `COc1ccc(CCNC(=O)Cn2c(C)nc3onc(C)c3c2=O)cc1OC` were -5% and 0.76.
Taken in the same sequence, the figures for `CC(C)(C)n1cc(C(=O)N2CCC[C@@H]2CC(=O)c2ccccc2)cn1` were -9% and 0.87.
In the case of `CC(C)N(Cc1cnn(C)c1)C(=O)CNc1ccccc1Cl`, the “% Inhibition” value was -8% and the Z score is listed as 1.24.
Regarding `CN(CCCOc1ccccc1)C[C@@H]1CCCN2CCCC[C@H]12`, the “% Inhibition” value is -6% and the Z score was 1.21.
As to `C#CCOc1c(OC)cccc1[C@H]1CC(=O)NCc2nc(N(C)C)sc21`, the “% Inhibition” value is on record as -4% and the Z score was 0.52.
Turning to `Cc1cccc(-n2ncnc2C[C@H]2CCCOC2)c1`, the “% Inhibition” value is -6% and the Z score was 0.63.
Taken in the same sequence, the figures for `CCc1nnc(CN(CC)C(=O)NCc2ccoc2)o1` were -4% and 0.51.
Taken in the same sequence, the figures for `CC(CC(=O)NC1CCC(=O)N(C)C1)NC(=O)C1CCCC1` (stereo not drawn) were -17% and 2.02.
Taken in the same sequence, the figures for `COc1cc(Cl)c(C)cc1NC(=O)CN(CC(=O)O)C(C)C` were -11% and 1.25.
For `O=C(C1COc2ccccc2O1)N1C2CCC1CC(n1cccn1)C2` (stereo not drawn), the “% Inhibition” value is reported as -17% and the Z score came to 2.21.
Taken in the same sequence, the figures for `Cc1cccc(CN2C[C@@H](C(=O)O)C[C@H](C(=O)Nc3ccc(C)nc3)C2)c1` were 3% and -0.47.
Consider `CCN1CCN(C(=O)CCN(Cc2ccccc2)c2nc(-c3ccccc3)nc3ccccc23)CC1`, for which the “% Inhibition” value is listed as -10% and the Z score is on record as 1.8.
For `O=C(Cn1c(Cc2ccc(Cl)cc2)nc2ccccc21)Nc1ccccc1`, the “% Inhibition” value worked out at 38% and the Z score is -1.66.
Taken in the same sequence, the figures for `Fc1ccc(CN(Cc2ncc(C3CC3)o2)C2CCOCC2)cc1` were -8% and 0.99.
Turning to `CN(C[C@H]1COc2ccccc2O1)c1cncc(C(N)=O)n1`, the “% Inhibition” value is on record as -12% and the Z score is 2.
In the case of `C[C@@H](CCc1ccccc1)NC(=O)NCC(C)(C)C(N)=O`, the “% Inhibition” value is -3% and the Z score was determined as 0.55.
The corresponding values for `Cc1cc(N2CCC[C@H](NC(=O)Cc3cccc(F)c3)C2=O)n(C)n1` are 0% and 0.01.
As for `C[C@@H](C1CCN(C(=O)Cc2ccc(CO)cc2)CC1)N1CCN(C)CC1`, the “% Inhibition” value is listed as -7% and the Z score was 1.42.
The corresponding values for `CCCC1(NC(=O)[C@H]2CCCN(C3CCN(Cc4ccncc4)CC3)C2)CC1` are 1% and -0.17.
For `CCc1nc(NCc2cccnc2Oc2ccc(F)cc2F)ncc1C`, the “% Inhibition” value is recorded as -12% and the Z score amounted to 1.51.
On to `COc1nc2c(c(C)nn2-c2ccccc2)c(C)c1CCC(=O)NC[C@H]1CCCO1`, for which the “% Inhibition” value is 3% and the Z score is -0.5.
With `CC(C)Cn1cc(CNC(=O)OCc2ccccc2)cn1`, the “% Inhibition” value was -6% and the Z score amounted to 0.99.
Turning to `O=C(Nc1cc(F)cc(F)c1)N1CC(c2noc(-c3ccncc3)n2)C1`, the “% Inhibition” value is 26% and the Z score is recorded as -2.98.
With `CCn1nnc2cc(C(=O)N3CCN(CC(=O)N(C)C)CC3)ccc21`, the “% Inhibition” value came to 1% and the Z score is listed as -0.18.
With `Clc1ccc(CN2CC[C@H](Oc3ccccc3)C2)nc1`, the “% Inhibition” value is recorded as -4% and the Z score was found to be 0.69.
For `O=C(NCCOc1ccccc1F)c1ccnnc1`, the “% Inhibition” value is reported as -6% and the Z score was 0.63.
The corresponding values for `COCC(=O)Nc1ccc(-c2noc([C@@H]3CCCN3Cc3ncc[nH]3)n2)cn1` are -12% and 1.58.
With `O=C1NN=C(c2ccccc2)[C@@]1(Cl)c1ccccc1`, the “% Inhibition” value is reported as -9% and the Z score is recorded as 1.11.
On to `Cc1ccc(CNC(=O)Cc2sc(-c3cccnc3)nc2-c2ccc(C)cc2)cc1`, for which the “% Inhibition” value came to 6% and the Z score is -0.82.
Taken in the same sequence, the figures for `Cc1nn([C@H]2CCS(=O)(=O)C2)c(O)c1Cc1ccc(Br)cc1` were -10% and 1.36.
The corresponding values for `C[C@H]1CCCN(C(=O)CNC2(c3cccc(F)c3)CC2)C1` are -11% and 2.07.
The corresponding values for `Cc1nnc(C(=O)NCCOc2cccc(Br)c2)s1` are -5% and 0.88.
For the compound `COCC[C@@H](CO)NC(=O)NCc1cc2cc(F)ccc2s1`, the “% Inhibition” value was 34% and the Z score is listed as -0.44.
The corresponding values for `CN(CCCCN1CCOCC1)C(=O)c1ccc2nc(C3CCCCC3)oc2c1` are -11% and 2.09.
On to `CCn1cc(CC(=O)N2CCCC[C@@H]2CC2(O)CCCCC2)nn1`, for which the “% Inhibition” value is 2% and the Z score was -0.42.
Taken in the same sequence, the figures for `CCC(=O)NCc1ccc(-c2noc(Cc3cccc(F)c3)n2)s1` were -14% and 1.63.
The corresponding values for `O=C1CC2(CCN(S(=O)(=O)Cc3ccc(Cl)cc3F)CC2)CN1` are -12% and 1.99.
With `COCC1CCN(S(=O)(=O)NCCc2c(C)n[nH]c2C)CC1`, the “% Inhibition” value is -8% and the Z score amounted to 1.13.
Taken in the same sequence, the figures for `Cc1ccccc1C(=O)Nc1ccc(N(C)C[C@H]2COCCO2)c(C(=O)O)c1` were -16% and 1.44.
Consider `CC1CCN(C(=O)C(C)C2CC2)CC1CNC(=O)OC(C)(C)C` (stereo not drawn), for which the “% Inhibition” value was -3% and the Z score is recorded as 0.28.
Taken in the same sequence, the figures for `CC(NC(=O)C1CCCc2ccccc21)c1nnc2n1CCCCC2` (stereo not drawn) were -8% and 1.
Taken in the same sequence, the figures for `Cc1nc(N(C)CCN2CCCC2)nc2ccccc12` were -24% and 2.58.
Taken in the same sequence, the figures for `CCOC1CC(NC(=O)N2CCOC(c3ccc(C)o3)C2)C12CCC2` (stereo not drawn) were -1% and 0.1.
Take `CC(=O)N1CCc2[nH]c3ccc(C(=O)NC4CCN(Cc5ccccc5)CC4)cc3c2C1`: the “% Inhibition” value is on record as 1% and the Z score was -0.1.
Taken in the same sequence, the figures for `O=C1CCCN1c1ccc(CNc2ncnc3cc(F)ccc23)cc1` were -13% and 2.02.
The corresponding values for `Cc1cc(C)nc(-n2nc(C)c(C(c3ccc(Cl)cc3)c3c(C)nn(-c4nc(C)cc(C)n4)c3N)c2N)n1` are -5% and 0.96.
The corresponding values for `Fc1ccc(N2CCN(c3cc(CNCc4ccco4)ccn3)CC2)cc1` are 8% and -1.64.
For the compound `COC(=O)c1ccccc1CCS(=O)(=O)Cc1ccccn1`, the “% Inhibition” value was -1% and the Z score came out at 0.08.
On to `O=C(CCC1CCN(Cc2ccoc2)CC1)NCc1cccnc1`, for which the “% Inhibition” value is -7% and the Z score amounted to 1.01.
Taken in the same sequence, the figures for `Cc1n[nH]c(CN2CC[C@@](O)(CO)C2)c1Cl` were -8% and 1.27.
`Cc1cc(NC(=O)N2CCC(n3cnnc3)CC2)ccc1N1CCCC1=O`: the “% Inhibition” value is recorded as -15% and the Z score was 1.36.
Turning to `CC(C)[C@@H](C(=O)N1CCn2nc(CCC(=O)O)cc2C1)c1ccccc1`, the “% Inhibition” value is reported as -19% and the Z score came to 2.42.
Taken in the same sequence, the figures for `O=C(NCCc1ccccn1)c1occc1-c1ccc(F)cc1` were 3% and -0.3.
`Cc1c(C)n(-c2ccccc2)c2ncn(CC(=O)N[C@H]3CCCc4ccccc43)c(=O)c12`: the “% Inhibition” value is recorded as 3% and the Z score was -0.33.
The corresponding values for `NC(=O)c1nc(Cn2ccnc2-c2cc(-c3ccccc3)no2)no1` are -14% and 2.31.
Taken in the same sequence, the figures for `CCc1c([C@H](C)S(=O)(=O)c2ccccc2)[nH]c(=O)n1CC` were 30% and -3.83.
Taken in the same sequence, the figures for `C[C@H]1CCc2c(sc(NC(=O)c3cccc(S(=O)(=O)NC4CCCCC4)c3)c2C#N)C1` were -10% and 1.84.
